# Out of some 420,000 compounds screened, about 64,000 (15%) were called active. Inconclusive results, whose numbers are uncertain, are shown with a selection of clear calls. The call rests on the fitted dose curve; in most records, active means well fitted inhibition curve with a large enough effect; inconclusive means small, poorly fitted or top-dose-only effect; inactive means flat fitted curve, though single readings scatter. No potency is given beside an inconclusive call; the fits are too rough.
# Assay: qHTS for Inhibitors of human tyrosyl-DNA phosphodiesterase 1 (TDP1): qHTS in cells in absence of CPT; further: nearly all actives have a fitted effect of over 55% in size
# Conditions: DT40 Tdp1-/- hTDP1 cells, no CPT, ATP luminescence, 48 h; activity change, negative = growth inhibition: at 46.2 µM (top of the series) unless noted
# Procedure, shortened: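 Readout: luminescence from CellTiter-Glo after 30 min in the dark at RT. Cells: DT40 Tdp1-/- with stable hTDP1, 400/well. Exposure: compounds alone, ≥48 hr, 37 °C.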
# On the % scale 0 is the no-effect control and ±100 the full control effect; potency means the concentration at half of the fitted maximal effect; tags describe the fitted curve by direction and shape.
SMILES,Potency,"activity change, negative = growth inhibition"
O=C(CSc1nc2ccsc2c(=O)n1Cc1ccccc1)NCc1ccco1,"inconclusive [inhibitor, single point]",–
Cc1ccccc1OCC(=O)Nc1cc(S(=O)(=O)N2CCOCC2)ccc1N1CCCC1,"inconclusive [inhibitor, single point]",–
CCOC(=O)c1c(NC(=O)C[n+]2ccc(N(C)C)cc2)sc(C)c1C,"inconclusive [inhibitor, single point]",–
COc1cc(C2C(=O)N(C3CCCCCC3)CC(=O)N2Cc2ccccc2)ccc1OC(C)C (centres undefined),active: 23.1 µM,–
Cc1ccc(NC(=O)C2CCN(C(=O)N3CCOc4ccccc43)CC2)cc1,"inconclusive [inhibitor, single point]",–
COc1ccc(COC(=O)c2ccc(C)c(S(=O)(=O)N3CCOCC3)c2)cc1F,–,inactive: -29.3%
Clc1ccc(NC2(c3nnnn3C3CCCCC3)CCCCC2)cc1,active: 20.6 µM,–
OC(COCC(F)(F)C(F)(F)C(F)(F)C(F)F)Cn1c2ccc(Cl)cc2c2cc(Cl)ccc21 (centres undefined),active: 2.59 µM,–
CCOCCCNC(=O)c1cn(CC)c2ccc(S(=O)(=O)N(C)C3CCCCC3)cc2c1=O,"inconclusive [inhibitor, single point]",–
CC(C)c1c(C(=O)N/N=C/c2ccc(OCc3ccccc3)cc2)nnn1-c1nonc1N,"inconclusive [inhibitor, full curve]",–
COc1cc(C(=S)N2CCOCC2)ccc1OC(=O)c1ccc(Br)cc1,"inconclusive [inhibitor, single point]",–
Cc1cc2c(cc1S(=O)(=O)N1CCN(c3cccc(C(F)(F)F)c3)CC1)OCC(=O)N2,"inconclusive [inhibitor, single point]",–
COC(=O)c1ccc(NC(=O)CN(Cc2ccccc2)S(=O)(=O)c2ccc(C)cc2)cc1,"inconclusive [inhibitor, single point]",–
O=C1NC(=S)S/C1=C\C=C\c1ccc([N+](=O)[O-])o1,active: 2.31 µM,–
O=C(c1cc(C(F)(F)F)cc(C(F)(F)F)c1)N1CCC[C@@]2(CCN(Cc3ccncc3)C2)C1,"inconclusive [inhibitor, single point]",–
COc1ccc(S(=O)(=O)N2CCOCC2)cc1NC(=O)Cc1ccccc1Cl,–,inactive: -12.8%
Cc1ccnc(SCC(=O)c2cc3ccccc3o2)n1,"inconclusive [inhibitor, single point]",–
COc1ccc(-c2ccn(-c3cccc(F)n3)n2)cc1,"inconclusive [inhibitor, single point]",–
CC(C)CCNC(=O)NC(=O)CSc1nnc(-c2ccccc2Br)o1,"inconclusive [inhibitor, single point]",–
O=C(CSc1ncc(-c2ccccc2)n1CC1CCCO1)N1CCCCC1 (centres undefined),–,inactive: -16.3%
Cc1sc2ncnc(N3CCN(c4ncccn4)CC3)c2c1C,"inconclusive [inhibitor, single point]",–
Cc1cnc(C(=O)OCC(=O)Nc2cc(-c3ccccc3)nn2-c2ccccc2)cn1,–,inactive: 2.57%
Cc1cc(NC(=O)CCCn2cnc([N+](=O)[O-])n2)no1,"inconclusive [inhibitor, single point]",–

SMILES,Potency,"activity change, negative = growth inhibition"
NC(=O)c1nc(-c2cccs2)nc2c1[nH]c(=O)n2-c1ccc(F)cc1,"inconclusive [inhibitor, single point]",–
COc1ccc(-c2ccnc(SCC(=O)c3ccc(Br)cc3)n2)cc1,"inconclusive [inhibitor, single point]",–
COc1ccc(NC(=O)c2cnc(Nc3ccc(C)c(Cl)c3)c3ccccc23)c(OC)c1,–,inactive: -34%
O=C(c1cc(COc2ccc3ncccc3c2)on1)N1CCCC(O)C1 (centres undefined),active: 20.6 µM,–
CCCCn1c(O)c(/C=C2\C=Nc3ccccc32)c(=O)[nH]c1=O,–,inactive: -0.627%
COc1ccc(NC(=O)CSc2nc(-c3ccncc3)nn2CC(=O)N2CCCC2)cc1,–,inactive: -0.172%
Cc1[nH]ncc1Nc1c(C(C)C)cccc1C(C)C,"inconclusive [inhibitor, single point]",–
CC(=O)Nc1cccc(NC(=O)CSc2ccc(-c3ccccn3)nn2)c1,"inconclusive [inhibitor, single point]",–
O=C/C(=C\Nc1ccc(Cl)cn1)c1nc2cc(Cl)ccc2o1,"inconclusive [inhibitor, single point]",–
O=C(COc1ccc(S(=O)(=O)N2CCOCC2)cc1)N1CCc2ccccc2C1,"inconclusive [inhibitor, single point]",–
CCCSc1ncc(Cl)c(C(=O)Nc2ccc(S(=O)(=O)N3CCC(C)CC3)cc2)n1,active: 14.6 µM,–
CC(Sc1nnc(CN2CCCC2)n1Cc1ccccc1)C(=O)Nc1ccc(F)cc1 (centres undefined),–,inactive: -9.04%
CC(C)[C@H](NC(=O)[C@@H]1CSC2c3ccccc3C(=O)N21)C(=O)NC1CCCC1 (some centres undefined),"inconclusive [inhibitor, single point]",–
Cc1ccc(Cl)cc1N1CCN(C(=O)c2cnn(C(C)(C)C)c2C2CCN(C(=O)OC(C)(C)C)CC2)CC1,"inconclusive [inhibitor, single point]",–
CCOc1ccc(NC(=O)Cn2cc(C(=O)c3ccc(CC)cc3)c(=O)c3cc4c(cc32)OCO4)cc1,"inconclusive [inhibitor, single point]",–
CCCCn1c(SCC(=O)c2ccc3c(c2)OCCO3)nnc1-c1ccoc1C,"inconclusive [inhibitor, partial curve, poor fit]",–
COc1ccc2c(c1)CC(C(=O)NCCN1CCN(c3ccccc3F)CC1)CO2 (centres undefined),"inconclusive [inhibitor, single point]",–
O=C(CN1CCN(c2ccccc2F)CC1)c1c[nH]c2ccc(F)cc12,"inconclusive [inhibitor, single point]",–
CCCC(=O)N1CCc2cc(OC)c(OC)cc2C1COc1ccc2c(C)cc(=O)oc2c1 (centres undefined),active: 13 µM,–
COc1ccc(NC(=O)Cn2c(=O)cc(C)c3c(C)nn(C)c32)cc1,active: 3.26 µM,–
COc1ccc(CNc2nc(-c3ccc(OC)cc3)cc(C(F)(F)F)n2)cc1,active: 5.8 µM,–
COc1cc(/C=C2/SC(=O)NC2=O)ccc1OC(=O)c1ccco1,active: 16.4 µM,–
COC(=O)C[C@H]1c2cc(F)ccc2S(=O)(=O)N1c1ccc(N(C)C)cc1,active: 13 µM,–

SMILES,Potency,"activity change, negative = growth inhibition"
C[C@H]1CN([C@@H](C)CO)C(=O)CCCn2nncc2CO[C@@H]1CN(C)C(=O)Nc1ccnc(N2CCOCC2)c1,"inconclusive [inhibitor, full curve, poor fit]",–
CCN1CCC2(CCN(C(=O)c3cc(COc4cc(C)ccc4C)on3)C2)C1 (centres undefined),–,inactive: 3.55%
Nc1ccc(C(=O)c2cccs2)cc1[N+](=O)[O-],–,inactive: -25.1%
CC(C)CN1CCNC(=O)C1CC(=O)NCCc1cnn(-c2ccccc2)c1 (centres undefined),–,inactive: 0.522%
OCC1CCCN(c2nc3cc4c(cc3cc2CNCc2cccc(C(F)(F)F)c2)OCO4)C1 (centres undefined),–,inactive: -16.9%
CC(Sc1nnnn1C1CCCC1)C(=O)Nc1cccc(S(=O)(=O)N2CCOCC2)c1 (centres undefined),"inconclusive [inhibitor, single point]",–
COC(=O)C(C)Sc1nc2c(c(=O)n(C)c(=O)n2C)n1Cc1cccc(C)c1 (centres undefined),"inconclusive [inhibitor, single point]",–
O=[N+]([O-])c1ccc(CP(=O)(c2ccccc2)c2ccccc2)cc1,"inconclusive [inhibitor, single point]",–
O=C(Nc1c(C(=O)c2ccc(Cl)cc2)oc2ccccc12)c1cc(=O)c2ccccc2o1,"inconclusive [inhibitor, single point]",–
C=CCc1ccccc1OCC(O)Cn1ccnc1C (centres undefined),"inconclusive [inhibitor, partial curve]",–
Cc1noc(C)c1COc1ccc(C(=O)NCCc2ccc(F)cc2)cc1,"inconclusive [inhibitor, single point]",–
O=C(Nc1ccccc1Cl)c1cc(C2CCCCN2C(=O)CCCc2ccccc2)on1 (centres undefined),active: 23.1 µM,–
COc1ccc(C(CNC(=O)c2cc3ccccc3cc2OC)N2CCCC2)cc1 (centres undefined),"inconclusive [inhibitor, partial curve]",–
Cn1nnnc1SCCCNCc1cccc(OCc2ccccc2F)c1,"inconclusive [inhibitor, single point]",–
CSCCC1NC(=O)N(CC(=O)Nc2cccc(S(=O)(=O)N3CCCCCC3)c2)C1=O (centres undefined),"inconclusive [inhibitor, single point]",–
O=C(Nc1ccc(NC(=S)NC(=O)c2cccs2)cc1)c1ccccc1,–,inactive: -19.3%
COc1ccc(CCN2C(=O)NC(NC(=O)c3ccccc3OC)(C(F)(F)F)C2=O)cc1OC (centres undefined),"inconclusive [inhibitor, single point]",–
CC1(C(=O)NCC2CCCO2)Oc2cccnc2NC1=O (centres undefined),–,inactive: 4.76%
Cc1ccc(Nc2nc(N)nc(CN3CCCCCC3)n2)cc1,"inconclusive [inhibitor, single point]",–
CCOc1ccccc1C1CC(c2cccc(NS(C)(=O)=O)c2)=NN1C(=O)c1ccccc1 (centres undefined),–,inactive: -12%
COC(=O)[C@]12CCCCC=C1N(Cc1ccccc1)C(=O)[C@H](CC(=O)N1CCCCC1)C2,"inconclusive [inhibitor, single point]",–
CC(C)NC(=O)c1ccc2c3n(nc2c1)-c1ccccc1CO3,active: 20.6 µM,–
CCOc1cc(NC(=O)C2CCCCC2)c(OCC)cc1NC(=O)c1ccco1,"inconclusive [inhibitor, partial curve]",–

# Source: PubChem BioAssay AID686978 (National Center for Advancing Translational Sciences (NCATS), 2013)
